Hit rate of the full screen: of about 310,000 compounds, about 14,000 (4.5%) showed an effect of 50% or more. Effects have a minus sign here. Some of the results follow.
The compounds below were run against human ether-à-go-go-related gene (hERG) potassium channel (human, UniProt Q12809) (assay: primary screen, population patch clamp on CHO cells stably expressing hERG).
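Further: peak tail current of the secondary pulse compared with the same well before compound.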

Chain of human ether-à-go-go-related gene (hERG) potassium channel (Q12809 whole entry, looked up): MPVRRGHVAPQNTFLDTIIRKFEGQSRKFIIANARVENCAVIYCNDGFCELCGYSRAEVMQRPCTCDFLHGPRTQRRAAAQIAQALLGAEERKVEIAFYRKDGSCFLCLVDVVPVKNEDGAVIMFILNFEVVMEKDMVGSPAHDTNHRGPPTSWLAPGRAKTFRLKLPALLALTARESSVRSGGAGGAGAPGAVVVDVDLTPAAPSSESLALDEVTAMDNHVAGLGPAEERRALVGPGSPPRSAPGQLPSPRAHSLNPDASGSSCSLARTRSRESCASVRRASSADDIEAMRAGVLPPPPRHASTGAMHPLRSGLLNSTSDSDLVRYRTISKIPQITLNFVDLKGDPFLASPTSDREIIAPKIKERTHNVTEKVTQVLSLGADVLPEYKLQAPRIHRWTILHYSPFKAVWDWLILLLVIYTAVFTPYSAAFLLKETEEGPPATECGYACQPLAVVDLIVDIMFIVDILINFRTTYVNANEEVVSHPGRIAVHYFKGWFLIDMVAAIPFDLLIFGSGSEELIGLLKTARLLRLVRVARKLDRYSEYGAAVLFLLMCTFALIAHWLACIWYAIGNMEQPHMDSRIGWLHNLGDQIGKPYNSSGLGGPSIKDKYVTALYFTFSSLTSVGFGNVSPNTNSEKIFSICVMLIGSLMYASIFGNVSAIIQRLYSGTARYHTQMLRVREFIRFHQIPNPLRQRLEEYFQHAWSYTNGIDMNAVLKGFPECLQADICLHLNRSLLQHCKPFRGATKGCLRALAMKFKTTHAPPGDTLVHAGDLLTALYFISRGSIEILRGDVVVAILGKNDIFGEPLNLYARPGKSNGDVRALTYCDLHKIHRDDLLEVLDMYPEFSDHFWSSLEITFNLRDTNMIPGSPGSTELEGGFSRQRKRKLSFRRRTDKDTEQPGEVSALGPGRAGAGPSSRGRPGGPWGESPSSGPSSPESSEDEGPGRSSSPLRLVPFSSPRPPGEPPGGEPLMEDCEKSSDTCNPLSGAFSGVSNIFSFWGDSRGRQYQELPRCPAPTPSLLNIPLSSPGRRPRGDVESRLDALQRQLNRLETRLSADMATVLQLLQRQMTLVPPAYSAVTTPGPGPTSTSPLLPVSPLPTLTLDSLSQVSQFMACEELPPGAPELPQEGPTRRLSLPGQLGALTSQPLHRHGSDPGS

Going from Cc1cc(C)c(C#N)c(N2CCN(c3ccc(F)cc3)CC2)n1 to Cc1noc2ncnc(N3CCN(c4ccc(F)cc4)CC3)c12, the “hERG current change (%, negative = inhibition) at 10uM” value falls from 10.3% to -38.3%.

Compared with CCOC(=O)c1sc(NC(=O)c2ccc3nc[nH]c3c2)nc1C, CCN(CC)C(=O)c1[nH]cnc1C(=O)Nc1ccccc1 is lower in “hERG current change (%, negative = inhibition) at 10uM” value: 8.25% for the first, -6.51% for the second.

Compared with CCCCc1cc(=O)oc2cc(C)cc(O)c12, COc1cccc2cc(C(C)=O)oc12 is higher in “hERG current change (%, negative = inhibition) at 10uM” value: -17.2% for the first, 15.5% for the second.

Compared with COc1ccc(CNC(=O)C2CCC(CNS(=O)(=O)c3cccc4nsnc34)CC2)cc1 (centres unmarked), O=C(NCc1cccs1)C1CCC(CNS(=O)(=O)c2ccc(Br)s2)CC1 (centres unmarked) is lower in “hERG current change (%, negative = inhibition) at 10uM” value: 9.06% for the first, -4.63% for the second.

Compared with Cc1ccc2c(c1)cc(CN(C(=O)N1CCOCC1)C1CCCC1)c1nnnn12, COc1ccc(S(=O)(=O)N2CCCC2)cc1C(=O)N1CCOCC1 is higher in “hERG current change (%, negative = inhibition) at 10uM” value: -9.24% for the first, 1.24% for the second.

Going from Nc1c(C(=O)c2ccco2)oc2ccccc12 to Cc1oc2c(c1C(=O)Nc1cccc3ccccc13)CCCC2, the “hERG current change (%, negative = inhibition) at 10uM” value falls from 21.5% to -4.55%.

First: CC1(C)Cc2cccc(OCC(=O)OCC(=O)Nc3ccc(C(N)=O)cc3)c2O1
Second: Cc1c(NC(=O)COC(=O)CSc2ccc(C(N)=O)cc2[N+](=O)[O-])c(=O)n(-c2ccccc2)n1C
The “hERG current change (%, negative = inhibition) at 10uM” value of the first is lower: -15.6% for the first, 23.1% for the second.

Going from O=C(Nc1cccc(F)c1)c1ccc(CSc2ccccc2)o1 to CN(Cc1ccccc1)C(=O)C(C(=O)c1ccc(F)cc1)n1cc(Cl)ccc1=O (centres unmarked), the “hERG current change (%, negative = inhibition) at 10uM” value falls from 5.17% to -8.83%.

Going from CC1CCCCN1C(=O)c1cc2ccccc2cc1O (centres unmarked) to Cc1c(O)ccc(C(=O)CN2CCN(c3ccccc3)CC2)c1O, the “hERG current change (%, negative = inhibition) at 10uM” value falls from 10.9% to -14%.

Going from CCn1nccc1C(=O)NC1=C(C#N)CCC1 to O=C1CCCN1CCCNC(=S)Nc1ccc(Cl)cc1Cl, the “hERG current change (%, negative = inhibition) at 10uM” value falls from 13.2% to -65.5%.

Compared with O=C(CCCn1nnc2ccccc2c1=O)N[C@H](C(=O)O)c1ccccc1, CCN1C(=NCCc2cccnc2)N[C@@H](c2ccccc2)C(C(=O)OC)=C1C is lower in “hERG current change (%, negative = inhibition) at 10uM” value: 5.81% for the first, -51.2% for the second.

Going from Cc1ccc(NC(=O)C2(c3ccccc3)CCCC2)nc1 to O=C(Nc1ccccn1)c1ccc2c(=O)n3c(nc2c1)CCCCC3, the “hERG current change (%, negative = inhibition) at 10uM” value falls from 8.18% to -47.2%.

Going from O=C(Cn1cc(C(F)(F)F)cc(Cl)c1=O)NCC1COc2ccccc2O1 (centres unmarked) to COc1ccc2cc3cc(C(=O)NCC4COc5ccccc5O4)oc3nc2c1 (centres unmarked), the “hERG current change (%, negative = inhibition) at 10uM” value rises from 5.57% to 6.49%.

Compared with COc1ccccc1OCCNC(=O)c1cc(C2CC2)nc2c1cnn2C(C)C, CCOc1ccccc1NC(=O)Cn1nnc(C(=O)NCCc2ccc(OC)c(OC)c2)c1N is higher in “hERG current change (%, negative = inhibition) at 10uM” value: -6.06% for the first, 3.08% for the second.

Compared with Cc1c(OC(=O)c2ccc([N+](=O)[O-])cc2)c2c(c[n+]1C)COC(C)(C)OC2.[I-], CCNc1ccc(C(=O)OCC(=O)NCc2ccc(C)cc2)cc1[N+](=O)[O-] is higher in “hERG current change (%, negative = inhibition) at 10uM” value: 9.15% for the first, 20.9% for the second.

Compared with NC(=O)C1CCN(CC(=O)Nc2ccccc2N2CCOCC2)CC1, O=C(Nc1ccccc1-c1ccccc1)NC1CCN(CC(=O)N2CCOCC2)CC1 is higher in “hERG current change (%, negative = inhibition) at 10uM” value: 3.15% for the first, 8.25% for the second.

First: C=CCN(C)NC(=S)Nc1ccccc1
Second: CC(C)N(c1ccccc1)c1ccc(NC(=S)NCCN(C)C)cc1
The “hERG current change (%, negative = inhibition) at 10uM” value of the first is higher: 21.5% for the first, -1.95% for the second.

Compared with NC(=O)c1c(N)sc2c1CCCCC2, Cc1ccc(-c2cc(C(=O)Nc3sc4c(c3C(=O)NCc3ccco3)CCC4)[nH]n2)c(O)c1 is lower in “hERG current change (%, negative = inhibition) at 10uM” value: 13.1% for the first, -0.984% for the second.

First: CC(C)C1Cc2c(C#N)c(N)n(C)c(=S)c2CO1 (centres unmarked)
Second: CCC(C)OC(=O)C1=C(C)NC(=O)NC1c1ccc(F)cc1 (centres unmarked)
The “hERG current change (%, negative = inhibition) at 10uM” value of the first is lower: -28.4% for the first, 1.85% for the second.

Going from Cc1nn(-c2cc(C(F)(F)F)ccc2Cl)c2nc(C(F)(F)F)[nH]c(=O)c12 to O=C(NCc1nnc2c(C(F)(F)F)cc(Cl)cn12)c1cccnc1, the “hERG current change (%, negative = inhibition) at 10uM” value rises from 18% to 24.3%.

Going from O=C(NCc1ccc2c(c1)OCO2)Nc1ccc2nsnc2c1 to O=C(NCc1ccc2c(c1)OCO2)C1CCCN1C(=O)Nc1ccc(F)cc1 (centres unmarked), the “hERG current change (%, negative = inhibition) at 10uM” value falls from 11.6% to -30.8%.

First: COc1ccc(-n2c(O)c(C=NCc3ccccn3)c3ccccc3c2=O)c(OC)c1
Second: O=c1c2ccccc2c(C=Nc2ccc(S(=O)(=O)N3CCCCC3)cc2)c(O)n1-c1ccc(Cl)cn1
The “hERG current change (%, negative = inhibition) at 10uM” value of the first is lower: 9.68% for the first, 17.5% for the second.

First: Cc1ccc(CN2CCNC(=O)C2CC(=O)N(C)C2CCCCC2)o1 (centres unmarked)
Second: CC(NC(=O)C1CCC(CNc2c(N3CCOCC3)c(=O)c2=O)CC1)c1ccccc1 (centres unmarked)
The “hERG current change (%, negative = inhibition) at 10uM” value of the first is lower: 1.35% for the first, 7.56% for the second.

Going from COc1ccc(S(=O)(=O)NC2CC(=O)N(c3ccccc3)C2)cc1C (centres unmarked) to Cc1ccc(N2C(=O)CN(Cc3ccccc3)C2=S)cc1C, the “hERG current change (%, negative = inhibition) at 10uM” value rises from -4.93% to 9.73%.

First: CCn1c(Sc2ccc(N)cc2Cl)nc2ccccc21
Second: CCn1c(N2CCN(S(=O)(=O)c3ccccc3C(F)(F)F)CC2)nc2ccccc21.Cl
The “hERG current change (%, negative = inhibition) at 10uM” value of the first is higher: 2.83% for the first, -39.6% for the second.

Going from Clc1ccc(-c2nnc(C3CC3)o2)cc1 to O=C(Nc1nnc(SCc2ccc(Cl)cc2Cl)s1)C1COc2ccccc2O1 (centres unmarked), the “hERG current change (%, negative = inhibition) at 10uM” value rises from -4.48% to 3.59%.

Compared with CCC(CC)NC(=O)Cc1ccc(S(=O)(=O)N2CCOCC2)s1, CCC(CC)NC(=O)CO/N=C/c1ccccc1OC(F)F is lower in “hERG current change (%, negative = inhibition) at 10uM” value: 3.03% for the first, -13.3% for the second.

First: CCOc1ccc(NC(=S)NN(C)C(=S)Nc2ccc(OCC)cc2)cc1
Second: COc1ccc(NC(=O)Cn2c(-c3ccccc3)cn(-c3ccc(C)cc3)c2=O)cc1
The “hERG current change (%, negative = inhibition) at 10uM” value of the first is lower: 5.64% for the first, 7.99% for the second.

Compared with CCOc1ccc(-n2c(C)nc3cc(C(=O)NCC4CCCO4)ccc32)cc1 (centres unmarked), Cc1ccc(S(=O)(=O)N2CCCOC2CNC(=O)C(=O)NCc2cccs2)cc1 (centres unmarked) is higher in “hERG current change (%, negative = inhibition) at 10uM” value: -15.2% for the first, -6.69% for the second.

Compared with CC1=C(C(N)=O)C(c2cccnc2)n2nc(-c3cccc(C)c3)nc2N1 (centres unmarked), Cc1ccc(-n2nc(-c3ccco3)cc2C(=O)NCc2cccnc2)cc1 is lower in “hERG current change (%, negative = inhibition) at 10uM” value: 0.347% for the first, -38.6% for the second.

First: Cc1[nH]c(=O)[nH]c(=O)c1CSCC(=O)OCC(=O)c1ccc(Br)cc1
Second: CCOC(=O)c1c(C)[nH]c(C(=O)OCC(=O)N2c3ccccc3CC2C)c1C (centres unmarked)
The “hERG current change (%, negative = inhibition) at 10uM” value of the first is lower: 6.18% for the first, 13% for the second.

Compared with Cc1nnc(NC(=O)C2C3C=CC(O3)C2C(=O)O)s1 (centres unmarked), CCc1nnc(NC(=O)CSc2nnc(-c3ccoc3C)n2-c2ccc(C)cc2)s1 is lower in “hERG current change (%, negative = inhibition) at 10uM” value: 0.943% for the first, -26.4% for the second.

Going from CC(NC(=O)C12CC3CC(C)(CC(C)(C3)C1)C2)c1ccncc1 (centres unmarked) to CCCCC(=O)Nc1ccc(S(=O)(=O)N2CCCCC2c2cccnc2)cc1 (centres unmarked), the “hERG current change (%, negative = inhibition) at 10uM” value falls from -9.96% to -29%.

First: CCC[n+]1c(C)sc2c(OC)ccc(OC)c21.[I-]
Second: COc1cc(/C=C/C(=O)c2ccc(C)cc2)ccc1OCC#N
The “hERG current change (%, negative = inhibition) at 10uM” value of the first is higher: 8.21% for the first, -7.24% for the second.

Compared with CC(=O)OCCn1c2nc(=O)[nH]c(=O)c-2nc2cc(C)c(C)cc21, COc1cccc(NC(=O)CSc2nnc3c(n2)[nH]c2ccc(C)cc23)c1 is lower in “hERG current change (%, negative = inhibition) at 10uM” value: 16.3% for the first, 8.36% for the second.

First: O=C(c1ccc(C(F)(F)F)cc1)C1CCCN(C2CCSCC2)C1 (centres unmarked)
Second: O=C(NC1CCSc2ccccc21)c1cc([N+](=O)[O-])ccc1N1CCOCC1 (centres unmarked)
The “hERG current change (%, negative = inhibition) at 10uM” value of the first is lower: -71.2% for the first, -57.8% for the second.

First: O=C(CCCCCCCCCCC(=O)NCc1cccnc1)NCc1cccnc1
Second: O=C(NCCC1CCCCN1S(=O)(=O)c1cccs1)C(=O)NCc1ccccc1 (centres unmarked)
The “hERG current change (%, negative = inhibition) at 10uM” value of the first is lower: -9.76% for the first, 6.03% for the second.

Going from CC(C)NS(=O)(=O)c1ccc(OCC(=O)N2CCN(Cc3ccc4c(c3)OCO4)CC2)c(Cl)c1 to O=C(N/N=C/c1ccc2c(c1)OCO2)C(=O)Nc1cccc(Cl)c1, the “hERG current change (%, negative = inhibition) at 10uM” value rises from -41.4% to 21.1%.

First: Cn1c(NCCc2ccccc2)cc(=O)n(C)c1=O
Second: Cc1c(N/C=C(\Cl)C(=O)C(F)(F)F)c(=O)n(-c2ccccc2)n1C
The “hERG current change (%, negative = inhibition) at 10uM” value of the first is lower: 2.95% for the first, 4.21% for the second.

Compared with C/C(=N\NC(=S)Nc1c(C)cccc1C)c1cc2ccccc2o1, COc1cccc(Sc2ccccc2/C=N/NC(N)=O)c1 is lower in “hERG current change (%, negative = inhibition) at 10uM” value: 15.1% for the first, 8.91% for the second.

Going from COc1cc(OC)c(OC)cc1CN1CCN(Cc2cccn2C)CC1.O=C(O)C(=O)O to N=c1c(C(=O)NCCN2CCOCC2)cc2c(=O)n3ccccc3nc2n1Cc1ccc(F)cc1, the “hERG current change (%, negative = inhibition) at 10uM” value falls from 0.393% to -76.5%.

First: Cc1sc2ncn(-n3c(C)ccc3C)c(=O)c2c1C
Second: Cc1nc2cc3nc(C)sc3cc2s1
The “hERG current change (%, negative = inhibition) at 10uM” value of the first is lower: -1.61% for the first, 2% for the second.

Compared with On1onc2c3cc(-c4ccccc4)nc3ccc21, O=C(NC(=S)Nc1ccc2c(c1)OCCO2)c1ccccc1F is higher in “hERG current change (%, negative = inhibition) at 10uM” value: -3.53% for the first, 10.7% for the second.

Compared with C#Cc1ccc([C@H]2C=C(C(=O)NC3CC3)O[C@@H](OCC)[C@@H]2CCCO)cc1, N/C(=N\OC(=O)c1cc(Br)ccc1Cl)c1ccccn1 is higher in “hERG current change (%, negative = inhibition) at 10uM” value: -5.37% for the first, 13.1% for the second.

For CCC1OC2(C)OC(=N)C1(C#N)C(C#N)(C#N)C2c1ccccc1 (centres unmarked), the “hERG current change (%, negative = inhibition) at 10uM” value was 17.9%.

From article PMC4336329 (PLoS ONE, 2015)
